Test results as given in article PMC7737296.
No constants are given. Whether binding was seen depends on the method and setting. For some assays here: Binding seen in cells or lysates may run through a third protein. Some entries that bind do so weakly or less than the wild type. For some assays here: Tags and fused reporters may be left off the sequences shown.

T1: AMT1;1-Cub-PLV (Arabidopsis thaliana) (UniProt P54144)
T1 sequence: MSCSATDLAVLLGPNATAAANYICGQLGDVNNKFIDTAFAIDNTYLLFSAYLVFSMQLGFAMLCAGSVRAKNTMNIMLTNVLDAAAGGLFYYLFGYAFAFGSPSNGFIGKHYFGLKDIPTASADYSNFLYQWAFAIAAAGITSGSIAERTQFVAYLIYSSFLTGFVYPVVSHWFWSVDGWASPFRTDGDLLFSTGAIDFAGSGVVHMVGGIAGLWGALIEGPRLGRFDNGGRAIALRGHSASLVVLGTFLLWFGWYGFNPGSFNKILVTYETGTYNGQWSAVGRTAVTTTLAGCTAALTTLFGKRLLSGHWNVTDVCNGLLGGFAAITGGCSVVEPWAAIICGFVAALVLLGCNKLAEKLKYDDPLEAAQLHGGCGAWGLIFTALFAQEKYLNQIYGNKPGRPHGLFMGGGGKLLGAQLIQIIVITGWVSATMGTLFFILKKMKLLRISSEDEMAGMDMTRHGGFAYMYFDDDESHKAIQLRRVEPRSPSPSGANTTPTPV

T2: AMT1;2-Cub (Arabidopsis thaliana) (UniProt Q9ZPJ8)
T2 sequence: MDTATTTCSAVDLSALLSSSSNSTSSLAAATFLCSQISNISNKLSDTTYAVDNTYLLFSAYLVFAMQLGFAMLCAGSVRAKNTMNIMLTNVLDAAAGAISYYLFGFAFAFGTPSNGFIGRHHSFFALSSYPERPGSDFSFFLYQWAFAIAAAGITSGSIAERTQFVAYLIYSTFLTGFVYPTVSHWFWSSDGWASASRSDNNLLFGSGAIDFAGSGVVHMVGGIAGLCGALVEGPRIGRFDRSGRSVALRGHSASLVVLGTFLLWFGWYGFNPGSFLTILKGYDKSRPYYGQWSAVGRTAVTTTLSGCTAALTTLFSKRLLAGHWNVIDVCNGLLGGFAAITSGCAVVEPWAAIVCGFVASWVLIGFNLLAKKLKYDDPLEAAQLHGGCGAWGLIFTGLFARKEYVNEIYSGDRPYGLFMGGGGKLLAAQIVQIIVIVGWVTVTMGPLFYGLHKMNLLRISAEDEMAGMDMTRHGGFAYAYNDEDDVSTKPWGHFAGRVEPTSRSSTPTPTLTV

T3: AMT1;3-Cub (Arabidopsis thaliana) (UniProt Q9SQH9)
T3 sequence: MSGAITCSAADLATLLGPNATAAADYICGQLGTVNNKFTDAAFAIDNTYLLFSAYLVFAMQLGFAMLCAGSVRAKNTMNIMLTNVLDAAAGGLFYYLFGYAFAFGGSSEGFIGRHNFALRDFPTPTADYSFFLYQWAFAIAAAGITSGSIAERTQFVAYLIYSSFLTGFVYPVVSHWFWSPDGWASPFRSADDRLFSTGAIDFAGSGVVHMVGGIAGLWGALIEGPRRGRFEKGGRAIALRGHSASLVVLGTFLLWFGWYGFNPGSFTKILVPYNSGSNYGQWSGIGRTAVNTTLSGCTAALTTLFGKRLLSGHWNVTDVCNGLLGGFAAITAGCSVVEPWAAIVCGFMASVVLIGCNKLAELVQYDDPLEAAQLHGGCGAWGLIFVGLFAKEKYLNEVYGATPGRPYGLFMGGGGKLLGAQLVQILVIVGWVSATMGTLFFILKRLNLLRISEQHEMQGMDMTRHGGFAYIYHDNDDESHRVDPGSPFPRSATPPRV

T4: nYFP-AMT1;1 (Arabidopsis thaliana) (UniProt P54144)
T4 sequence: T1 sequence

B1: NubG-CIPK15 (enzyme, UniProt P92937 1-421)
chain: MEKKGSVLMLRYEVGKFLGQGTFAKVYHARHLKTGDSVAIKVIDKERILKVGMTEQIKREISAMRLLRHPNIVELHEVMATKSKIYFVMEHVKGGELFNKVSTGKLREDVARKYFQQLVRAVDFCHSRGVCHRDLKPENLLLDEHGNLKISDFGLSALSDSRRQDGLLHTTCGTPAYVAPEVISRNGYDGFKADVWSCGVILFVLLAGYLPFRDSNLMELYKKIGKAEVKFPNWLAPGAKRLLKRILDPNPNTRVSTEKIMKSSWFRKGLQEEVKESVEEETEVDAEAEGNASAEKEKKRCINLNAFEIISLSTGFDLSGLFEKGEEKEEMRFTSNREASEITEKLVEIGKDLKMKVRKKEHEWRVKMSAEATVVEAEVFEIAPSYHMVVLKKSGGDTAEYKRVMKESIRPALIDFVLAWH
B2: CIPK15-cCFP (enzyme, UniProt P92937 1-421)
chain: B1 chain
B3: NubG-CIPK19 (enzyme, UniProt Q9FJ55 1-483)
chain: MADLLRKVKSIKKKQDQSNHQALILGKYEMGRLLGHGTFAKVYLARNAQSGESVAIKVIDKEKVLKSGLIAHIKREISILRRVRHPNIVQLFEVMATKSKIYFVMEYVKGGELFNKVAKGRLKEEMARKYFQQLISAVSFCHFRGVYHRDLKPENLLLDENGNLKVSDFGLSAVSDQIRQDGLFHTFCGTPAYVAPEVLARKGYDGAKVDIWSCGVILFVLMAGFLPFHDRNVMAMYKKIYRGDFRCPRWFPVEINRLLIRMLETKPERRFTMPDIMETSWFKKGFKHIKFYVEDDHQLCNVADDDEIESIESVSGRSSTVSEPEDFESFDGRRRGGSMPRPASLNAFDLISFSPGFDLSGLFEDDGEGSRFVSGAPVGQIISKLEEIARIVSFTVRKKDCKVSLEGSREGSMKGPLSIAAEIFELTPALVVVEVKKKGGDKMEYDEFCNKELKPKLQNLSSENGQRVSGSRSLPSFLLSDTD

Columns and labels:
[1] = molecular target: T1, AMT1;1-Cub-PLV (Arabidopsis thaliana); experiment: two-hybrid; split-ubiquitin system in yeast; AMT-Cub-PLV as bait, NubG-CIPK as prey; growth on SD-Trp -Leu -His, X-gal staining, filter and quantitative beta-galactosidase assays
[2] = molecular target: T2, AMT1;2-Cub (Arabidopsis thaliana); experiment: as above
[3] = molecular target: T3, AMT1;3-Cub (Arabidopsis thaliana); experiment: as above
[4] = molecular target: T4, nYFP-AMT1;1 (Arabidopsis thaliana); experiment: split reporter; split-fluorescent protein assay (nYFP + cCFP, reconstituted YFP fluorescence) in transiently transformed N. benthamiana leaves, confocal microscopy 36 to 48 h after infiltration

Row | Binder | binding [1] | binding [2] | binding [3] | binding [4]
1 | B1 | binds | binds | binds | 
2 | B2 |  |  |  | binds
3 | B3 | no binding |  |  | 
